Measurements taken from publication PMC11603075 (Communications Biology, 2024).

Biological target: T1, KDM4E (Homo sapiens, UniProt B2RXH2)
T1 construct: KDM4E1–337; made in house; host or cells: E. coli
T1 sequence (B2RXH2 1-337): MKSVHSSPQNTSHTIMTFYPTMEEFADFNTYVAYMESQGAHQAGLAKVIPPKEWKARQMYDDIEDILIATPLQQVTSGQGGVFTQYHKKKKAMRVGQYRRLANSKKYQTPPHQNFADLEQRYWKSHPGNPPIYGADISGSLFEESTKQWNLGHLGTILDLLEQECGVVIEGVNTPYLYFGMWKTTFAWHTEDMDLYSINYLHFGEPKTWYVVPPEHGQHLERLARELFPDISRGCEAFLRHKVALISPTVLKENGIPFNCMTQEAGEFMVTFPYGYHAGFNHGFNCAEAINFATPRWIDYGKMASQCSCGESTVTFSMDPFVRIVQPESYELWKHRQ
Test: Specific hydroxylation activity of KDM4E
Assay type: biochemical
Method: Fig. 3 KDM4E-catalysed hydroxylation occurs at Arg-20 on histone H2a peptide. a LC–MS/MS analysis of H2a(1–20) after KDM4E treatment. Two potential hydroxylation sites, R17 and R20, were identified, with the latter more likely (Supplementary Fig. 9). b Peptide variant studies support Arg-20 hydroxylation; specific activities: H2a(1–20), 0.65 nmol min^−1 mg^−1 SD: 0.073; H2a(1–20) with a C-terminal carboxylic acid (indicated with an -OH), no activity; H2a(1–20)R20A, no activity; H2a(1–20)R20K*, no activity; H2a(1–20)R20Kme3*, 0.44 nmol min^−1 mg^−1 SD: 0.04; H2a(1–20)R3me2a*, 0.51 nmol min^−1 mg^−1 SD: 0.05; H2a(1–20)R3A, 0.37 nmol min^−1 mg^−1 SD: 0.002; H2a(1–21)*, 0.65 nmol min^−1 mg^−1 SD 0.02; H2a(1–25, 0.35 nmol min^−1 mg^−1 SD: 0.044; and H2a(10–29), 0.02 nmol min^−1 mg^−1 SD: 0.013. Measurements employed MALDI–TOF MS except when labelled with*, which employed LC–MS (Supplementary Fig. 10 for representative MS data). n = 3 independent assays. c KDM, RDM and hydroxylation (+16 Da) activities of KDM4E are sequence and context dependent. Histone peptides (H2a, H3, H4) and variants (wild type residue in red, replaced with either K, Kme3, R or Rme2a) were incubated with KDM4E and analysed on MALDI–TOF MS. KDM, RDM and hydroxylation (+16 Da) were detected in some but not all peptides (Supplementary Fig. 10 for representative MS data). (−) No mass changes observed. n = 3 independent assays. See Supplementary Table 6 for conditions. TEXT PRINTED IN THE PICTURE: (c) H2a: K/R replacement K: -; K/R replacement Kme3: KDM/ROH; K/R replacement R: ROH; K/R replacement Rme2a: KDM/ROH | (c) H3: K/R replacement K: -; K/R replacement Kme3: KDM; K/R replacement R: -; K/R replacement Rme2a: RDM | (c) H4: K/R replacement K: -; K/R replacement Kme3: -; K/R replacement R: -; K/R replacement Rme2a: RDM DOUBTS OF THE COPYIST ABOUT THIS PICTURE: Panel c: the table cells are qualitative activity classes (KDM, RDM, ROH, -) for peptide variants, not numbers; it is uncertain whether they count as results. / Panel b: the bar chart prints no values beside the bars, so nothing was taken from it.
MS-based screening assays with peptides and calf thymus histones were as reported; see Supplementary Table 6 for conditions. Time course assays were based on reported procedures. In brief, equal volumes of the enzyme and substrate solutions were combined to initiate the reaction; 10 µL of 2% (v/v) formic acid (HCOOH) in ddH2O or 100% methanol was added to 10 µL of the reaction mixture to quench reactions at different time points. Unless otherwise stated, time course assays were carried out in triplicate. In some cases, LC–MS was used instead of MALDI-TOF MS to avoid a MALDI matrix induced artefact with the hydroxylated product (Supplementary Fig. 16).
Data collected from time course assay(s) were used to plot the % conversion vs time (min) using GraphPad Prism5 version 5.04; the resultant slopes were used to fit a line with linear regression to the first-order region of the reaction. The resultant gradient was then converted from % product formation min^−1 to amount of peptide converted (demethylation and / or hydroxylation) in µM.
Supplementary Figure 17 Comparison of specific hydroxylation activities of KD M4E with H2a(1–20) when anal ysed by MALDI-TO F MS or LC–MS. Comparison of specific activities for KDM4E catalysed hydroxylation of H2a(1–20) when analysed with MALDI-TOF MS or LC–MS ([…] SD: 0.073 and 0.65 nmol·min−1·mg− 1 SD: 0.01 respectively). n = 3 (independent assays). See Supplementary Table 6 for assay […]
(also on this page, place not known: KDM4E H2a(1 –20) analysed MALDI -TOF LC –MS nmol·min −1·mg−1 nmol·min−1·mg−1 0.8specific activity (nmol·min-1·mg-1)) […]
[ E nz ym e] [Peptide] [2OG] [Ascorbate] [(NH4)2F e(S O4)2] [TCEP] Buffer pH7.5 Enzyme Cognate substrate (mM) (mM) (mM) (mM) (mM) (mM) [HE PE S]
Supplementary Table 6 Summary of MS assay conditions for substrate screening. These conditions […]

specific activity (hydroxylation) (Figure 3b, LC–MS (*), replicate 1): 0.4739 nmol/min/mg
specific activity (hydroxylation) (Figure 3b, LC–MS (*), replicate 2): 0.5839 nmol/min/mg
specific activity (hydroxylation) (Figure 3b, LC–MS (*), replicate 3): 0.4739 nmol/min/mg
specific activity (hydroxylation) (LC–MS (marked *), mean of n = 3, SD: R20Kme3 0.04, R3me2a 0.05, H2a(1–21) 0.02): 0.51 nmol/min/mg
Substance: Ac - SGR [ me 2a ] GKQ GGKAR AKAKT R SSR [H2a(1–20)R3me2a, H2a(1–20)R3me2a without a biotin tag]
extent of hydroxylation (in words) (KDM4E, relative to H2a(1–20)): substantial reduction in hydroxylation activity was not observed
